Variants at the background level are over-represented here.

The chains are these.
B1: TPR 5TU (parent)
chain: GGAUCUUCUCGAUCUAACAAAAAAGACAAAUCUGCCACAAAGCUUGAGAGCAUCUUCGGAUGCAGAGGCGGCAGCCUUCGGUGGCGCGAUAGCGCCAACGUUCUCAACUAUGACACGCAAAACGCGUGCUCCGUUGAAUGGAGUUUAUCAUG

Variants of B1 are the subject of the series. As to the kind of experiment: polymerase ribozyme fitness, log enrichment relative to wild type (log ratio); higher = more active; in vitro selection for triplet polymerase activity. The gist of the method:
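Only genotypes with ≥10 input reads and ≥1 read per output were kept after Illumina sequencing of input and output libraries. These libraries were PCR-built, transcribed mutants of each subunit of a heterodimeric triplet polymerase ribozyme, each put through one triplicate in vitro selection round with frozen incubation at −7 °C, gel excision of extended constructs, streptavidin-bead capture and RT-PCR. Fitness is a logarithmic ratio of genotype enrichment to wild-type enrichment, from inverse-variance-weighted replicate averages, with the logarithm in base 2.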
As to GGAUCUUCUCGAUCUAACAAAAAAGACAAAUCUGCCACAAAGCUUGAGAGCAUCUUCGGAUGCAGCAGCGGCAGCCUUCGGUGGCGCGAUAGCGCCAACGUUCUCAACUAUGACCCGCAAAACGCUUGCUCCGUUGAAGGGAGUUUAUCAUG, the “polymerase ribozyme fitness (log ratio)” value was ≤ -4.2.
GGAUCUUCUCGAUCUAACAAAAAAGACAAAUCUGCCACAAAGCUUGAGAGCAUCUUCGGAUGCAGCGGCGGCAGCCUUCGGUGGCGCGAUAGCGCCUACGUUCUCAACUAUGACACGCAAAACGCGUGCUCCGUUGAAUGGAGUUUGUCAUG: the “polymerase ribozyme fitness (log ratio)” value is ≤ -4.2.
GGAUCUUCUCGAUCUAACAAAAAAGACAAAUCUGCCACAAAGCUUGAGAGCAUCUUCGGAUGCAAAGGCGGCAGCCUUCGGUGGCGCGAUAGCGCCAACGUUCUCAACUAUGACACGCAAAACGCGUGCUCCGUUGAAUGGAGUUUAGCAUG: the “polymerase ribozyme fitness (log ratio)” value is ≤ -4.2.
Consider GGAUCUUCUCGAUCUAACAAAAAAGACAAAUCUGCCACAAAGCUUGAGAGCAUCUUCGGAUGCAAAUGCGGCAGCCUUCGGGGGCGCGAUAGCGCCAGCGUUCUCAACUAUGACACGCAAAACGCGUGCUCCGUUGAAUGGAGUUUAUCAUG, for which the “polymerase ribozyme fitness (log ratio)” value was ≤ -4.2.
With GGAUCUUCUCGAUCUAACAAAAAAGACAAAUCUGCCACAAAGCUUGAGAGCAUCUUCGGAUGCAAAGGCUGCAGCCUUCGGUGGCGCGAUAGUGCCAACGUUCUCAACUAUGACACGCAAAACGCGUGCUCCGUUGAAUGGAGUUGAUCAUG the figure was ≤ -4.2; with GGAUCUUCUCGAUCUAACAAAAAAGACAAAUCUGCCACAAAGCUUGAGAGCAUCUUCGGAUGCAGCGGCGGCAGCCUUCGGUGGGGCGAUAGCGCCAACGUUCUCAACUAUGACACGCAAAACGCGUGCUCCGUUGAAUGAAGUUCAUCAUG, ≤ -4.2.
For GGAUCUUCUCGAUCUAACAAAAAAGACAAAUCUGCCACAAAGCUUGAGAGCAUCUUCGGAUGCACAGGCGGCAGCCUUAGGUGGCGCGAUAGCGCAAACGUUCUCAACUAUGACACGCAAAACGCGUGCUCCGUUGAAUGGAGUUUAUCAUG, the “polymerase ribozyme fitness (log ratio)” value was ≤ -4.2.
With GGAUCUUCUCGAUCUAACAAAAAAGACAAAUCUGCCACAAAGCUUGAGAGCAUCUUCGGAUGCACAGGCGGCAGCCUUCAGUGGCGCGAUAGCGCAAACGUUCUCAACUAUGACACGCAAAACGCGUGCUCCGUUGAAUGGAGUUUAUCCUG the figure was ≤ -4.2; with GGAUCUUCUCGAUCUAACAAAAAAGACAAAUCUGCCACAAAGCUUGAGAGCAUCUUCGGAUGCAGCGGCGGCAGCCUUCGGUGGCGCGAUGGCGCCAACGUUCUCAACUAUGACACGCAAAACGCGUGCUCCGUUGAAUGGAGUUUAUCAUG, ≤ -4.2; with GGAUCUUCUCGAUCUAACAAAAAAGACAAAUCUGCCACAAAGCUUGAGAGCAUCUUCGGAUGCAGCGGCGGCAGCCUUCGGUGGGGCGAUAGCGCCAUCGGUCUCAACUAUGACACGCAAAACGCGUGCUCCGUUGAAUGGAUUUUAUCAUG, ≤ -4.2.
The figure for GGAUCUUCUCGAUCUAACAAAAAAGACAAAUCUGCCACAAAGCUUGAGAGCAUCUUCGGAUGCAGCGGCGGCAGCCUUCGGUGGCGAGAUAGCGCCAACGUUCUCAACUAUGACACGCAAAACGCGUGCUCCGUUGAAUGUGGUUUAUCAUG is ≤ -4.2; for GGAUCUUCUCGAUCUAACAAAAAAGACAAAUCUGCCACAAAGCUUGAGAGCAUCUUCGGAUGCAAAGGCGACAGCCUUCGGUGGCGCGAUAUCGCCAUCGUUCUCAACUAUGACACGCAAUACGCGUGCUCCGGUGAAUGGAGUUUAUCAUG it is ≤ -4.2.
The figure for GGAUCUUCUCGAUCUAACAAAAAAGACAAAUCUGCCACAAAGCUUGAGAGCAUCUUCGGAUGCAAAGGCGGCAGCCUUCGGUGACGCGAUAGCGCCAACGCUCUCAACUAUGCCACGCAAAACGCGUGCUCCGUUGAAUGGAGUUUAUCCUG is ≤ -4.2.
As to GGAUCUUCUCGAUCUAACAAAAAAGACAAAUCUGCCACAAAGCUUGAGAGCAUCUUCGGAUGCAGCGGCGGCAGCUUUCGGGGGGGCGAUAGCGCCAACGUUCUCAACUAUGACACGCAAAACGGGUGCUCCGUUGAAUGGAGUUUAUCAUG, the “polymerase ribozyme fitness (log ratio)” value was ≤ -4.2.
The figure for GGAUCUUCUCGAUCUAACAAAAAAGACAAAUCUGCCACAAAGCUUGAGAGCAUCUUCGGAUGCAAAGGAGGCAGCCUUCGGUGGCGCGAUAGCGCCAACGUUCUCAUCUAUGACACGCAAAACGCGUGCUCCGUUGAAUGGAGUUUAUCAUG is ≤ -4.2.
With GGAUCUUCUCGAUCUAACAAAAAAGACAAAUCUGCCACAAAGCUUGAGAGCAUCUUCGGAUGCUGAGGCGGCAGCCUUCGGUGGCGCGAUAGCUCCAACGUUCUCAACUAUGACACGCAAAACGCGUGCUCCGUUGAAUGGAGUUUAUUAUG the figure was ≤ -4.2.
With GGAUCUUCUCGAUCUAACAAAAAAGACAAAUCUGCCACAAAGCUUGAGAGCAUCUUCGGAUGCACAGGCGGCAGCCUUCGGUGGUGCGAUAGCGCCAACGUUCUCAACUAUGACAGGCAAAACGCGUGCUCCGUUGAAUGGAGUUUAUCAUG the figure was ≤ -4.2.
For GGAUCUUCUCGAUCUAACAAAAAAGACAAAUCUGCCACAAAGCUUGAGAGCAUCUUCGGAUGCAAAGGCGGCAGCCUUCGGUGGCGCGAUAGCGCCGAGGUUCUCAACUAUGACACGCAAAACGCGUGCUCCGUUGAAUGGAGUUUAUCAUG, the “polymerase ribozyme fitness (log ratio)” value was -3.75.
Take GGAUCUUCUCGAUCUAACAAAAAAGACAAAUCUGCCACAAAGCUUGAGAGCAUCUUCGGAUGCACAGGCGGCAGCCUUCGGUGGCGAGAUAGCGCCAACGUUCGCAACUAUGACACGCAAAACGCGUGCUCCGUUGAUUGGAGUUUAUCAUG: the “polymerase ribozyme fitness (log ratio)” value was ≤ -4.2.

The values are drawn from the RNAGym collection of RNA variant scans (doi:10.1073/pnas.2313332121).
